Experimental data published in publication PMC4336329 (PLoS ONE, 2015).
Among all 310,000 compounds or so, about 14,000 (4.5%) showed an effect of 50% or more. The effect is printed as a negative number. The list shows a part of the results.

Molecular target: human ether-à-go-go-related gene (hERG) potassium channel (human, UniProt Q12809)
Assay: primary screen, population patch clamp on CHO cells stably expressing hERG
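Also: peak tail current of the secondary pulse compared with the same well before compound.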

human ether-à-go-go-related gene (hERG) potassium channel, sequence (Q12809 whole entry, looked up): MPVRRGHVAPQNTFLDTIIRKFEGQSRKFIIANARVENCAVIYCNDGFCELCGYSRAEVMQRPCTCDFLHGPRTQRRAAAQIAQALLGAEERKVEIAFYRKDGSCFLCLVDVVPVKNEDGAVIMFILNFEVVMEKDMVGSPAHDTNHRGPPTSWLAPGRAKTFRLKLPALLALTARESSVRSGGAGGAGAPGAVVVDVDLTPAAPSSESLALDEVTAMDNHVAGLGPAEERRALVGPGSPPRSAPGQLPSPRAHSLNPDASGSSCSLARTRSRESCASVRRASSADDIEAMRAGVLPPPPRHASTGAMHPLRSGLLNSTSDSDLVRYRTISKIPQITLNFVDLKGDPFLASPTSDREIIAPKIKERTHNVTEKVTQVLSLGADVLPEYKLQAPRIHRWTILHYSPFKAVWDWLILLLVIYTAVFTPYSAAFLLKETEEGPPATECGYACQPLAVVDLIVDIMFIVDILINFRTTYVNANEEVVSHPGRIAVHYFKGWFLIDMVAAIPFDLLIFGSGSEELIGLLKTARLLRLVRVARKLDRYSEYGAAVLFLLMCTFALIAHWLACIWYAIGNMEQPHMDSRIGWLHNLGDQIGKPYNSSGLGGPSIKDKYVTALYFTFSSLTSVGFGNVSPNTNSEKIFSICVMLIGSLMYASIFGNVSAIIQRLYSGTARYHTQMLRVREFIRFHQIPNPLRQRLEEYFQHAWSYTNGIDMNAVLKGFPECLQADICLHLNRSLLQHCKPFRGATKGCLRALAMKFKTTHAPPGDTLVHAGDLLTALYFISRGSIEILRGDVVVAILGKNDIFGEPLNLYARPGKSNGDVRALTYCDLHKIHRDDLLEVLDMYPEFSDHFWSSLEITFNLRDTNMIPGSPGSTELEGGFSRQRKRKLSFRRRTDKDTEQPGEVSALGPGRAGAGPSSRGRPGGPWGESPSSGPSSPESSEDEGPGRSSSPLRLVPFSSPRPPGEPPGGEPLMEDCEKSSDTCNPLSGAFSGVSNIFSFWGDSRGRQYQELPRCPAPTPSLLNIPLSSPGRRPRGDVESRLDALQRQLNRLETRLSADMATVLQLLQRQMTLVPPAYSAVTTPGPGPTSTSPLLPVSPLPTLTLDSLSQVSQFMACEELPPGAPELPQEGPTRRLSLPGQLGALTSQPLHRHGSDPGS

Row | Structure (SMILES) | hERG current change (%, negative = inhibition) at 10uM [%]
1 | O=C(c1c(F)cccc1F)N1CCCC1 | -5.32
2 | CC1CC(C)CN(C(=O)COC(=O)c2cc3ccccc3cc2O)C1 (centres unmarked) | -7.65
3 | CC(=O)N(C1=NCCCS1)c1ccccc1F | -10.6
4 | CCO[C@@H]1OC(C(=O)Nc2ccccc2)=C[C@H](c2ccc(Br)cc2)[C@H]1CCCO | -11.4
5 | Cc1cccc(Nc2cnn(C34CC5CC(CC(CC(=O)O)(C5)C3)C4)c(=O)c2Cl)c1 | -1.35
6 | COc1ccc(S(=O)(=O)N(C)C)cc1NC(=O)c1ccc(OCC(=O)N2CCOCC2)c(OC)c1 | -3.64
7 | O=C1N=c2ccc(Br)cc2=C1c1sc(=O)[nH]c1O | 34.8
8 | Cc1nonc1NC(=O)c1ccccc1Br | 6.95
9 | NC(=O)C1CCN(c2ccnc3cc(Cl)ccc23)CC1 | -51.6
10 | COc1ccc(N(C(=O)CNC(=O)c2ccco2)C(C(=O)NC2CCCC2)c2ccco2)cc1 (centres unmarked) | 3.39
11 | CN(CC(=O)Nc1ccc(F)cc1)CC(=O)N1CCCC1 | 5.03
12 | CC1CCN(C(=O)COC(=O)Cn2cnc3c2c(=O)n(C)c(=O)n3C)CC1 | 12.3
13 | COc1ccc(Br)c(C(=O)N(C)CC(=O)Nc2ccc(N3CCOCC3)cc2)c1 | -7.73
14 | NS(=O)(=O)c1ccc(NC(=O)CSc2nc3ccccc3n2-c2ccccc2)cc1 | 2.64
15 | CCCC(=O)N1c2ccccc2C(=C2SC(C(=O)OC)=C(C(=O)OC)S2)C(=S)C1(C)C | -4.77
16 | O=C(COC(=O)c1cccs1)NCc1ccc2c(c1)OCO2 | -11.6
17 | O=C(NCCc1nc2ccccc2[nH]1)c1cccc(Br)c1 | -20.8
18 | O=C(CSc1ccccn1)Nc1nc2ccc(Br)cc2s1 | -1.93
19 | CCOC(=O)CSc1nc2c(sc(=S)n2-c2ccc(CC)cc2)c(=O)[nH]1 | 8.67

Row | Structure (SMILES) | hERG current change (%, negative = inhibition) at 10uM [%]
20 | CC(=O)N1CCN(S(=O)(=O)c2cccc(C(=O)OCC(=O)NC(=O)c3cccn3C)c2)CC1 | 6.58
21 | O=C(c1n[nH]c(=O)c2ccccc12)N1CCN(Cc2ccc3c(c2)OCO3)CC1 | 2.15
22 | COc1ccc2cc(C3CC(c4cccs4)=NN3S(C)(=O)=O)c(Cl)nc2c1 (centres unmarked) | -15.5
23 | CCc1nnc(NC(=O)CSc2nnc(CNc3ccc(C)cc3)n2C)s1 | 19.2
24 | O=C(N/N=C\C=C\c1ccco1)c1cncc(Br)c1 | -14.2
25 | COC(=O)c1cc(C(=O)OCC(=O)N(C)C2CCS(=O)(=O)C2)cc([N+](=O)[O-])c1 (centres unmarked) | 7.96
26 | Cc1ccccc1OCCN1C(=O)NC2(CCCc3ccccc32)C1=O (centres unmarked) | -24.6
27 | Cc1cc(OCC(=O)O)c2c3c(c(=O)oc2c1)CCCC3 | 15.5
28 | N#Cc1ccc(NC(=O)c2nc(-c3ccccc3)n(-c3ccccc3)n2)cc1 | -29
29 | Cc1nnc(SC(C)C(=O)Nc2nccs2)s1 (centres unmarked) | 33.3
30 | CCCn1c(C(O)c2ccc(OC)c(OC)c2)nc2ccccc21 (centres unmarked) | 6.88
31 | O=c1[nH]nc(SCCS(=O)(=O)c2ccc(F)cc2)n1-c1ccccc1 | -0.412
32 | Cc1c(CN(C)C(=O)c2sc3cc(Cl)ccc3c2Cl)cnn1C | -46.5
33 | COc1ccc(CN2c3cc(S(=O)(=O)N4CCOCC4)ccc3N3CCCC32)cc1 (centres unmarked) | -10.6
34 | COc1ccccc1N(C(C)=O)C1SC(=O)N(c2ccccc2)C1=O (centres unmarked) | 14
35 | O=C(Nc1cccc(S(=O)(=O)NC2=NCCC2)c1)c1cc(-c2ccco2)nc2ccccc12 | 7.49
36 | O=C(O)COc1ccc(/C=C2/SC(=S)N(Cc3ccccc3)C2=O)cc1 | 17.3
37 | O=C(Nc1ccc(N2CCCC2)cc1)c1cccc(F)c1 | 1.87
38 | CCn1c(CNC(=O)c2ccco2)nnc1SCC(=O)Nc1cc(F)ccc1C | -0.0602

Row | Structure (SMILES) | hERG current change (%, negative = inhibition) at 10uM [%]
39 | COc1ccc2nc(-n3c(O)c(C4=c5ccccc5=NC4=O)[nH]c3=S)sc2c1 | 5.96
40 | Cc1cc(C)n2c(SCCO)nnc2n1 | 14.9
41 | Cc1c(/C=N/NC(N)=O)c2ccccn2c1C(=O)c1ccc(F)cc1 | -5.23
42 | CC1C(=O)N2CCCc3cc(NS(=O)(=O)c4ccccc4)cc1c32 (centres unmarked) | 3.76
43 | O=[N+]([O-])c1ccc(Nc2nc(N/N=C\c3ccc4c(c3)OCO4)nc(N3CCCCC3)n2)cc1 | 10.1
44 | Cc1ccc(SSc2cc(C)ccc2N)c(N)c1 | 15.3
45 | CC1=NN(c2ccc([N+](=O)[O-])cc2)C(=O)/C1=C\N(C)C | -7.37
46 | O=C1Nc2cc3c(cc2C1=O)sc1ccccc13 | 20.9
47 | Cc1cccc(CCNC(=O)CC2C(=O)NCCN2Cc2ccccc2C)n1 (centres unmarked) | 11.6
48 | CC(=O)N1CCN(c2ccccc2NC(=O)Cc2ccc(Cl)cc2)CC1 | -64.8
49 | CC1CCN(Cc2nnnn2CCCC(=O)NCCc2cnn(C)c2)CC1 | 7.62
50 | CCNC(=S)/C(=C(/[O-])c1ccc([N+](=O)[O-])cc1)[n+]1ccccc1 | 19.4
51 | O=C(NC1CCN(C(=O)Nc2cccc(Cl)c2)CC1)C1CCCCC1 | 13.1
52 | CCC(C)(C)NC(=O)CN(C(=O)c1csnn1)c1ccccc1-c1ccccc1 | 9.75
53 | Cc1cnc(=O)[nH]c1SCc1ccccc1F | 14.5
54 | CCCCN(CCCC)C(=S)N/N=C/c1c(C)[nH]n(-c2ccccc2)c1=O | 12.2
55 | CC(Cc1ccccc1)NC(=O)CCCN1C(=O)c2ccccc2C1=O (centres unmarked) | -11.8
56 | CNC(=O)NC(=O)COC(=O)c1ccccc1OCc1ccccc1 | 2.01
